PubChem BioAssay AID588855 (National Center for Advancing Translational Sciences (NCATS), 2011)
Hit rate of the full screen: of about 410,000 compounds, about 5,000 (1.2%) were called active. Inconclusive results, whose numbers are uncertain, are shown with a selection of clear calls. Calls follow the shape of the dose curve; as a rule, active = well fitted inhibition curve with a large enough effect; inconclusive = small, poorly fitted or top-dose-only effect; inactive = no such curve, though single readings can be large or run the other way. A potency beside an inconclusive call is a rough fit, not a confirmed value.

Experiment: qHTS for Inhibitors of TGF-b; also: nearly all actives have a fitted effect of over 65% in size
Conditions: HepG2 CAGA-GFP TGF-b/SMAD3 reporter, GFP fluorescence, 18 h, TGF-beta stimulated, 500 pg/mL final; series mostly up to 46.1 µM; activity, negative = inhibition: at the top concentration
In short: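 Per well, imaged GFP fluorescence of HEPG2 CAGA-GFP cells gives the signal; cells get compound, then TGF-beta (500 pg/mL final), 18 h at 37 degrees C; %Activity versus -TGF-beta and +DMSO controls.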
% is scaled to controls: 0 for no effect and ±100 for the full control effect; potency is read from the fitted curve at half-maximal effect; tags tell the direction and shape of the fitted curve.

Row | Structure (SMILES) | Potency | activity, negative = inhibition
1 | CC(C)(C)c1ccc(C(=O)N2CCN(CCNC(=O)C(=O)NCc3ccc(Cl)cc3)CC2)cc1 | inconclusive: 12.6 µM [inhibitor, partial curve] | 
2 | CCOC(=O)c1ccc(-c2c(C)cc3oc(=O)cc(-c4ccccc4)c3c2C)cc1 | inconclusive: 35.5 µM [inhibitor, single point] | 
3 | COc1cc(OC)c2c(-c3cccc(-c4cccc(N)c4)c3)cc(=O)oc2c1 | inconclusive: 20 µM [inhibitor, partial curve, poor fit] | 
4 | COc1ccc2sc(N(CCCN(C)C)C(=O)c3ccc(C(=O)c4ccccc4)cc3)nc2c1 | inconclusive: 35.5 µM [inhibitor, single point] | 
5 | CCCCNC(=S)NNC(=O)c1csc(C)c1 |  | inactive: -13.7%
6 | N/C(Cc1ccc([N+](=O)[O-])cc1)=N\OC(=O)c1cccc(Br)c1 |  | inactive: 7.75%
7 | Oc1ccccc1C1=NN(c2ccccc2)C(c2ccccc2)C1 (configuration not stated) | inconclusive: 15.8 µM [inhibitor, partial curve, poor fit] | 
8 | Cc1cccc(-c2nc(CS(=O)CC(=O)NC3CCCC(C)C3C)c(C)o2)c1 (configuration not stated) | inconclusive: 22.4 µM [inhibitor, single point] | 
9 | CCOc1cc(C(=O)NCCc2csc(-c3ccc(C)cc3)n2)cc(OCC)c1OCC | inconclusive: 3.98 µM [inhibitor, single point] | 
10 | COc1ccc(Cc2c(-c3ccc(F)cc3)nc3c(C)cc(Br)cn23)c(C)c1 | inconclusive: 25.1 µM [inhibitor, single point] | 
11 | CC(C)(C)OC(=O)C[C@@H]1C/C=C\C[C@H](CC(=O)N[C@H](CO)Cc2ccccc2)C(=O)N[C@@H](Cc2ccccc2)COC1=O |  | inactive: 2.85%
12 | CC1CCN(c2nc3c(c(=O)n(C)c(=O)n3C)n2Cc2ccccc2)CC1 | inconclusive: 35.5 µM [inhibitor, single point] | 
13 | O=C(Cn1cnc2c(nnn2Cc2ccc(Cl)cc2)c1=O)N1CCCc2ccccc21 | inconclusive: 3.98 µM [inhibitor, single point] | 
14 | CCOC(=O)c1c(NC(=O)/C=C\C(=O)O)sc(C)c1-c1ccccc1 |  | inactive: 25%
15 | CCOC(=O)N1CCC(NC(=O)c2ccc3c(c2)N(Cc2cc(C)ccc2C)C(=O)c2ccccc2S3=O)CC1 (configuration not stated) | inconclusive: 1.41 µM [inhibitor, partial curve] | 
16 | CCC(C)(C)NC(=O)Cn1c(=O)ccc2cc(S(=O)(=O)N3CCC(C)CC3)ccc21 | inconclusive: 35.5 µM [inhibitor, single point] | 
17 | O=C(OCn1ncc(Cl)c(Cl)c1=O)c1ccccc1Cl |  | inactive: -15.4%
18 | COc1ccccc1Nc1nc(NCc2ccco2)c2ccccc2n1 | inconclusive: 35.5 µM [inhibitor, single point] | 
19 | COCCNCCCOc1ccc(C(C)(C)c2ccccc2)cc1 |  | inactive: 5.84%
20 | CCN(CC)S(=O)(=O)c1ccc(C(=O)NNC(=O)C2COc3ccccc3O2)cc1 (configuration not stated) |  | inactive: -4.06%
21 | O=C(Cc1ccc(NC(=O)C2CCN(C(=O)C3CCCC3)CC2)cc1)Nc1cccc(C(=O)N2CCCCC2)c1 |  | inactive: -7.33%
22 | CCOC(=O)/C(C#N)=N/Nc1c(C)n(C)n(-c2ccccc2)c1=O |  | inactive: 0.0214%
23 | CCOc1cc(N2CCOCC2)c(OCC)cc1NC(C)C(=O)N1CCC(C)CC1 (configuration not stated) | inconclusive: 25.1 µM [inhibitor, single point] | 

Row | Structure (SMILES) | Potency | activity, negative = inhibition
24 | CCOc1ccc(-c2cn3c(n2)sc2cc(C(=O)NCCc4ccc(OC)c(OC)c4)ccc23)cc1 |  | inactive: -19.3%
25 | COc1ccccc1NC(=S)NCc1ccc(S(N)(=O)=O)cc1 |  | inactive: 4.33%
26 | Cc1ccc(C2=NN(CC(=O)NCCc3ccc(Cl)cc3)C(=O)CC2)cc1 | active: 11.2 µM | 
27 | CN(C)S(=O)(=O)c1cccc(C(=O)NCCc2ccccc2)c1 | inconclusive: 5.62 µM [inhibitor, single point] | 
28 | O=S(=O)(c1ccc(Br)cc1)N1CCN=C1SCc1cccc(F)c1 | inconclusive: 35.5 µM [inhibitor, single point] | 
29 | CCOC(=O)C1=C(C)NC(C)=C(C(=O)OCC)C1c1ccc(O)cc1 | inconclusive: 35.5 µM [inhibitor, single point] | 
30 | COC(=O)[C@H](CC(C)C)N(Cc1ccccc1)S(=O)(=O)N(Cc1ccccc1)[C@@H](CC(C)C)C(=O)OC | inconclusive: 2.82 µM [inhibitor, single point] | 
31 | COc1cccc(CNc2nc(C(F)(F)F)nc3ccccc23)c1 | inconclusive: 10 µM [inhibitor, partial curve] | 
32 | CN(C)S(=O)(=O)c1ccc(N2CCN(S(=O)(=O)c3ccc(F)cc3)CC2)c(Cl)c1 | inconclusive: 11.2 µM [inhibitor, single point] | 
33 | CCOC(=O)C1(Cc2ccccc2C)CCCN(C(=O)c2cc(C3CC3)[nH]n2)C1 (configuration not stated) | inconclusive: 3.55 µM [inhibitor, single point] | 
34 | CC(CNC(=O)CCc1ccccc1)NC(=O)CCc1ccccc1 (configuration not stated) | inconclusive: 0.631 µM [inhibitor, partial curve] | 
35 | CN(C)c1ccc(-c2ccnc3c2CC(C)(C(=O)Nc2cccc(C(F)(F)F)c2)O3)cc1 (configuration not stated) | inconclusive: 35.5 µM [inhibitor, single point] | 
36 | O=C(COc1ccccc1[N+](=O)[O-])Nc1cccc(S(=O)(=O)N2CCCC2)c1 | inconclusive: 0.178 µM [inhibitor, full curve, poor fit] | 
37 | c1coc(CN(Cc2ccco2)c2ncnc3c2oc2ccccc23)c1 | inconclusive: 14.1 µM [inhibitor, partial curve, poor fit] | 
38 | Brc1ccccc1OCCOCCOc1cccc2cccnc12 |  | inactive: -20.8%
39 | CCNc1nc(SCCOc2ccc(C)cc2)nc(N(C)C)n1 |  | inactive: 0%
40 | COc1ccc(OC)c(NC(=O)N2c3ccccc3Sc3ccccc32)c1 | inconclusive: 3.16 µM [inhibitor, partial curve] | 
41 | CCCCCCCc1nn2c(=O)cc(O)nc2s1 |  | inactive: 5.82%
42 | CCc1ccc(C2c3c(-c4cc(C)ccc4O)n[nH]c3C(=O)N2Cc2cccnc2)cc1 (configuration not stated) | inconclusive: 17.8 µM [inhibitor, single point] | 
43 | CC(C)(C)S(=O)(=O)/C(C#N)=C/c1sccc1C1OCCO1 | inconclusive: 31.6 µM [inhibitor, partial curve, poor fit] | 
44 | O=C(Nc1nnc(-c2ccccc2)o1)c1nc2ccccc2s1 | inconclusive: 22.4 µM [inhibitor, single point] | 
45 | O=C(Nc1cccc([N+](=O)[O-])c1)C1C2CC/C=C\CCC21 (configuration not stated) | inconclusive: 0.891 µM [inhibitor, full curve, poor fit] | 
46 | O=C(Nc1cccc(Cl)c1N1CCCC1)c1ccc([N+](=O)[O-])o1 |  | inactive: 1.49%

Row | Structure (SMILES) | Potency | activity, negative = inhibition
47 | CC(=O)CSc1nsc(SCC(C)=O)c1C#N |  | inactive: -10.2%
48 | CCCCC(=O)Oc1c(S(=O)(=O)c2ccccc2)c(C)nn1C(C)(C)C | inconclusive: 35.5 µM [inhibitor, single point] | 
49 | CCNc1ccc(S(=O)(=O)N(C)C)cc1NCC(=O)Nc1ccccc1Br | inconclusive: 35.5 µM [inhibitor, single point] | 
50 | CC(=O)Nc1ccc(NC(=O)c2ccc(N(C)S(=O)(=O)c3ccc(C)cc3)cc2)cc1 |  | inactive: -2.05%
51 | COc1ccc(-c2coc3c(C(=O)NCCc4ccccc4)cccc23)c(C)c1 | inconclusive: 22.4 µM [inhibitor, single point] | 
52 | CCOc1ccc(S(=O)(=O)NCCC(=O)NCC2CCCO2)cc1 (configuration not stated) | inconclusive: 14.1 µM [inhibitor, single point] | 
53 | O=C(C1=NN[C@@H]2C(=O)N(c3ccccc3C(F)(F)F)C(=O)[C@H]12)C(c1ccccc1)c1ccccc1 | inconclusive: 0.112 µM [inhibitor, full curve, poor fit] | 
54 | c1coc(CSSCc2ccco2)c1 | inconclusive: 10 µM [inhibitor, partial curve] | 
55 | CCOc1ccc(CCNC(=O)CN2C(=O)c3cccnc3Oc3ccc(Cl)cc32)cc1 | inconclusive: 35.5 µM [inhibitor, single point] | 
56 | CC(C)CC[n+]1ccn(C2=C([O-])c3ccccc3C(=O)/C2=N\S(=O)(=O)c2ccccc2)c1 | active: 3.16 µM | 
57 | O=C(CCCOc1ccccc1)N1CCN(c2ccc(F)cc2)CC1 |  | inactive: -7.46%
58 | CCc1nc(N2CCN(C(=O)CCl)CC2)c2c3c(sc2n1)CC(C)CC3 (configuration not stated) | inconclusive: 25.1 µM [inhibitor, single point] | 
59 | O=C(CCl)NCc1cc(-c2ccc(Cl)cc2)no1 | inconclusive: 17.8 µM [inhibitor, partial curve, poor fit] | 
60 | CNc1ncnc2c1ncn2[C@H]1CN(Cc2ccc(F)cc2)C[C@@H](CO)O1 |  | inactive: 33%
61 | CN(/N=C/c1cc(Br)cc(Br)c1O)c1cccc(C(F)(F)F)n1 | inconclusive: 20 µM [inhibitor, single point] | 
62 | COCCCNc1ccn2nc(-c3cccc(OCc4ccccc4)c3)cc2n1 | inconclusive: 35.5 µM [inhibitor, single point] | 
63 | COc1cccc2oc(-c3ccco3)cc(=O)c12 | inconclusive: 14.1 µM [inhibitor, single point] | 
64 | COC(=O)C1=C(N)Oc2cc(C)n(CCCn3ccnc3)c(=O)c2C1c1cccc(Cl)c1 (configuration not stated) |  | inactive: 35.7%
65 | Cc1cc(C)cc(Nc2nc3ccccc3c(=O)[nH]2)c1 | inconclusive: 22.4 µM [inhibitor, single point] | 
66 | COc1ccc(S(=O)(=O)N2CCN(c3ccc4nnc(-c5ccccc5)n4n3)CC2)cc1 | inconclusive: 7.08 µM [inhibitor, full curve] | 
67 | CCOc1ccc(CCNC(=O)Cn2nnc(-c3ccc(C(F)(F)F)cc3)n2)cc1OCC |  | inactive: -11.8%
